Laboratory results from patent US20220127354A1 (Amgen, published 2022).

Assays:
Assay in all cases: flow cytometry, transfected 293T cells, 2 mM CaCl2
[1] = target: T1, huCDH19(1-43)::FLAG::hu(44-141)::ckCDH19(142-776) (construct K, Hu EC1) (human/chicken chimera);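 also: binding of Alexa647-labelled anti-CDH19 antibodies to cells expressing human/chicken CDH19 chimeras, read as cell-bound fluorescence, with mock-transfected cells as controls, n.d. meaning not determined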
T1 construct: leader (1-43 of the entry) left out; also called huCDH19(44-141)::ckCDH19(142-776)

[2] = target: T2, raCDH19(1-43)::FLAG::raCDH19(44-770) (construct W, Ra EC1-5) (rat)
T2 construct: leader (1-43 of the entry) left out; also called rat Cadherin19
T2 chain: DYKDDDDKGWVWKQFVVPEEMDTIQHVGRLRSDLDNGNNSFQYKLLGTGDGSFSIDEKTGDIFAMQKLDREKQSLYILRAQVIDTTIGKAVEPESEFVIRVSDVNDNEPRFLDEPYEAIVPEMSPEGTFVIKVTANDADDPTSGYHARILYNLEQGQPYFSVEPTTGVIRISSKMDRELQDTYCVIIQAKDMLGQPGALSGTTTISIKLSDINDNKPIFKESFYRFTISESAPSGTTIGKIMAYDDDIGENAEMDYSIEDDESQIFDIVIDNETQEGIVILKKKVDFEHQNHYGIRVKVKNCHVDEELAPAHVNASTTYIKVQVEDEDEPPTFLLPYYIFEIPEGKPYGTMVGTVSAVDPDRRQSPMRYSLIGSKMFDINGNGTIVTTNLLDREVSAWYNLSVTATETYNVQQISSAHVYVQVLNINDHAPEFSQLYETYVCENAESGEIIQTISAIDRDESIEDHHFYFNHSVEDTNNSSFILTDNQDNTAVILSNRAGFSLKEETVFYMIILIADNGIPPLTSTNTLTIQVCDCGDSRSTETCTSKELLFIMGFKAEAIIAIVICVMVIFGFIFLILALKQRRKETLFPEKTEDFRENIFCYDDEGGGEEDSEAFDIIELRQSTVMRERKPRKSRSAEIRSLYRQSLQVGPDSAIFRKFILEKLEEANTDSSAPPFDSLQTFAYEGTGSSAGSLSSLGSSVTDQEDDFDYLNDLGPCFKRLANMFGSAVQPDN

[3] = target: T3, rhCDH19(1-43)::FLAG::rhCDH19(44-65)::caCDH19(65-770) (construct S, rh EC1a) (rhesus macaque/dog chimera)
T3 construct: leader (1-43 of the entry) left out

[4] = target: T4, rhCDH19(1-43)::FLAG::rhCDH19(44-141)::caCDH19(141-770) (construct R, rh EC1) (rhesus macaque/dog chimera)
T4 construct: leader (1-43 of the entry) left out

Measured: binding result

B1: hu anti-<huCDH19> 16A4.1 (1-474)(T144L) VH::huIgG1z + 16A4.1 (1-235)(G141Q) VL::huKLC (Ab ID 14071) (antibody)
heavy: QVQLQESGPGLAKPSETLSLTCTVSGDSITSYYWSWIRQPPGKGLEWIGYIYYSGSTNYNPSLKSRVTISVDTSKNQFSLKLSSVTAADTAVYYCARDQRRIAAAGTHFYGMDVWGQGTLVTVSS[here human IgG1 constant region without letters]
light: [here about 100 residues without letters][here about 120 residues without letters]
notes: Engineered variant of 16A4; the entries already carry the changes; Bin 5
binds: all assays above
